# Measured values as given in PMC10726135.
# This is one part of the list. At the low end of the ranking the order means little. The protein was read in a cell extract, so binding may be indirect.
# Biological target: T1, HNF4alpha8 (COS-7 nuclear extract) (UniProt P41235-5)
# T1 sequence: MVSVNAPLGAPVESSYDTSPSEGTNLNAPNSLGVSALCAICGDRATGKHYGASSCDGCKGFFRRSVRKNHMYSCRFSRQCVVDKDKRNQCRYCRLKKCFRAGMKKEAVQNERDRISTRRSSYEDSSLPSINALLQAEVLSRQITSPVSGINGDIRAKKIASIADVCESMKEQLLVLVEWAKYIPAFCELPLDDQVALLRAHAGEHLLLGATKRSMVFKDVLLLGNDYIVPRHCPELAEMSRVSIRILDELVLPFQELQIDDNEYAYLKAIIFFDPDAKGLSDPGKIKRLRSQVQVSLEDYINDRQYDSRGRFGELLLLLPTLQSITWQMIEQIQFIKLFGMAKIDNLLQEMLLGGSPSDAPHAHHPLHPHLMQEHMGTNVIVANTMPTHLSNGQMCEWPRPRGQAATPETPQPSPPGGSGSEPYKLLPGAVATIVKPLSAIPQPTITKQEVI
# Assay: protein-binding microarray
# Conditions: COS-7 nuclear extract on double-stranded Agilent 4x180k PBM; binding buffer, salt, pH and temperature not given; high values mean tight binding; double strand, one strand shown; sequences stand for … in …GCCTAGGGAGATTAGAGTATCGGTCGA
row,Sequence,binding signal (log2 normalized intensity)
1,ATTGGGTACAATGTTCACTATTTGAACTTA,4.06
2,GATAAGCAGAAGGTCAGGTGAATCAACGAT,-1.11
3,AGGGCCCGAGGCCTTGAGCATACAAAACCC,-1.36
4,GTGTCAACATGGACTTTGTTGTTTGCCTCT,4.08
5,GAAGTTGCCCGAGCTGCCCTTTATCTCCTC,2.79
6,GTTGCTTCAAAGGGCAAAAGGGCAAAACTG,4.85
7,GCTGGCGGGAGCATAGCAGCGAGGACAACC,-1.2
8,TGATGCATCCTGAGGCAAAATTCCTCGCTA,-1.33
9,ACTGACCCAGGGAGAAAGGTCAGGGGCAGG,2.11
10,TATGGGTTAACAGAATGAACAGCTCTTCTT,-0.999
11,CCAGATGTTACCACCCAGACCAGTAACCTA,-1.16
12,CCTGTTTAAAGAATTTTTCCCCTAGTTACA,1.44
13,TGGACTTTGCACTAAAAGCCATGAGAAGGT,5.41
14,AACTGGAGTAAAGGTCACTCTTGCTATGCA,3.94
15,CTTTCATCTTTGCGGTGAGCATTTGTTTAG,0.99
16,GCTGCTACTTTAGCTGCCAGAGGTTCTTTC,0.529
17,CTGGCTGACCTTTAGCCTGGCCATTTCTCA,5.07
18,GAAGACCAACAGGTGAAGACATGCTGGTGT,-0.89
19,AACATCAGGGTGCCAGCAGGTGGTCAGCCT,-1.35
20,GGGTTACAGGTGGACAAACAGGCTGAACAT,-1.34
21,ATTTAGTAAGTTCAAGAAGACCTTTGCTCC,6.78
22,ACCCATCCCTTTGCAATAAAAGATTGCATC,0.24
23,ACTCTGACCCAGGAGCCTTCCGGAGGCTCT,-1.27
24,TGAAGTAAATGCAGTTTGTCAAGTGCCCGG,1.35

row,Sequence,binding signal (log2 normalized intensity)
1,AAAAAATTCAAAGCAGAGGTGACCCTTGCA,3.93
2,CAAAGTTATCAAGTTGCTTAAATTCTTGTA,0.696
3,AGGGTATAGGATAAGGAATGAAGCAGAACC,-1.29
4,CCACTCTGCCTTCAGCGGTGCATTTTTTTC,0.976
5,TAATCAGCAAGTTTTATATGAAAACAAAGG,1.22
6,GTTGCCCAGCTATTAAATGGAATACTTGCC,-0.383
7,GTTCGTGCTTCTTGGCCTCTTTGTTTACAC,1.46
8,GTTATCTCTTTTGTGATAGAATGAATGGAA,1.67
9,GCTTCCAAGAATTTAAGAGAACTAGAGATA,-1.37
10,TTTTTCAGATCCCTCTGGTGCTGATGTGTT,1.91
11,TTTTTTTGTTGTTATCCATTTAAAAAGTAT,1.35
12,ATTGCCCCCTAATGGTATTTATTTTAAACC,2.33
13,GACAAAGTGTGCACTTTGCACCTGGGCTGG,5.52
14,GGATGTCTTTTGTTCTAATGAGGCCACTCC,1.16
15,TATTCTATCAGTAGGTACGTTTGTGATACA,1.23
16,AGCTTAAGCATACAGATTACATCTCCAGCT,-1.36
17,ACCGGCCAAACTGGTTTCTCCGCTCGGGGA,-1.23
18,TTTGCCCTTTTTAATGTTTCATTAAGCAAG,0.868
19,GATAAGGAATGAGGAGTCAGAGCGTGTTTC,-1.27
20,CAATTCGCATTTCTGCTTCTTCTCATTCTT,-0.111
21,CCAAAGGAATCTACATAACAAACATTACTA,-1.28
22,GCTTAAAACGACTGATTCTCAGGCATCTCT,-1.37
23,CCCAGTTCAAAGGTTAAGACTTTGAATCAG,4.27
24,CATTCTCTAATCAGGTCGCTGCCTGCCCCT,3.39

row,Sequence,binding signal (log2 normalized intensity)
1,GGGGCAGGTAAGTACCAATATTTGTTAAGT,0.69
2,TTCCTCCAGCCTGTCGGAATTTGCCCTGTG,5.15
3,GGCAAGCCGACTTACAGGACAAAAGTAAAT,-1.35
4,TGCGCTGGCCTTGCTTTTCACAGTCGATCT,-1.33
5,ACCTGGACTTGAAGCCAGACTCTGCCATTT,-1.32
6,AAACAACCCAGAGAATGCTAGACAAGGGAA,-1.34
7,TTCCCCTCCCTTCCACCTTTGCCCTCCAAA,6.42
8,ATCTGGATTTTCAGGTTCCCCAGTGAGGAT,1.46
9,AGGTCAATGAAGCTCTTGCTGGTCAAGCTA,-1.37
10,AAACTGTATTGCTCAATGTCAAACACACTG,-1.26
11,TGCCCCTTCACATATTTTGAAAGAAAGAGA,1.31
12,CACAACTGGATGGTGTTTGATCTGATGTAC,2.01
13,GGCAGGGGAGAACTTCCTCCTCCTTGGCTC,-1.24
14,CACAGGTAATAAGCAGTAGACTAAAACCCA,-1.26
15,TCACCAGGATGGGCCATGACCTTTACCCCC,10
16,CAAATATTGAATGTGTTACACCTGTGTGTA,1.63
17,AAAAGTGACCTTTGCTCCAGTTCCCAATAA,7.02
18,TTGTCCTTAGACAGTAACCCTTGAGCTCTG,3.73
19,AATTAATGTACCCCCGGAAACACGTCCTGT,4.14
20,GATAACCGAGGCTGACAGCAGAGAGTTTTC,-1.41
21,CTAGTGTACAGGTGACCTTTGGAATGAACC,7.75
22,GTAAATGTACTGTAAACCTAGGTAGTGGAC,1.55
23,ACCAACCTGTCCAAAGGTCATCTGTCACTC,6.36
24,AAAGCAAGTTAAAACAGCAGAGCACGATGA,-1.41
